Test results reported in article PMC5062570 (Nature Communications, 2016).

Experiments:
[1] = target: PF-7802-labelled proteins in ARPE-19 cells (Homo sapiens, UniProt Q14697); conditions: Q14697 GANAB Neutral alpha-glucosidase AB
[2] = target: PF-7802-labelled proteins in ARPE-19 cells (Homo sapiens, UniProt P83731); conditions: protein RPL24 60S ribosomal protein L24, P83731
[3] = target: PF-7802-labelled proteins in ARPE-19 cells (Homo sapiens, UniProt P21333); conditions: P21333 FLNA Filamin-A
[4] = target: PF-7802-labelled proteins in ARPE-19 cells (Homo sapiens, UniProt P60709)
[5] = target: PF-7802-labelled proteins in ARPE-19 cells (Homo sapiens, UniProt Q13263); conditions: TRIM28 Transcription intermediary factor 1-beta (Q13263)
[6] = target: PF-7802-labelled proteins in ARPE-19 cells (Homo sapiens, UniProt P07339)
[7] = target: PF-7802-labelled proteins in ARPE-19 cells (Homo sapiens, UniProt P00338)
[8] = target: PF-7802-labelled proteins in ARPE-19 cells (Homo sapiens, UniProt P51991); conditions: protein HNRNPA3 Heterogeneous nuclear ribonucleoprotein A3 (P51991); one column per replicate
[9] = target: PF-7802-labelled proteins in ARPE-19 cells (Homo sapiens, UniProt P67936); conditions: TPM4 Tropomyosin alpha-4 chain (P67936)
[10] = target: PF-7802-labelled proteins in ARPE-19 cells (Homo sapiens, UniProt P61604); conditions: protein HSPE1 10 kDa heat shock protein, mitochondrial (P61604); one column per replicate
[11] = target: PF-7802-labelled proteins in ARPE-19 cells (Homo sapiens, UniProt P19022); conditions: protein CDH2 Cadherin-2 (P19022)
[12] = target: PF-7802-labelled proteins in ARPE-19 cells (Homo sapiens, UniProt O00469); conditions: protein PLOD2 Procollagen-lysine,2-oxoglutarate 5-dioxygenase 2 (O00469); replicates in separate columns
[13] = tested on: PF-7802-labelled proteins in ARPE-19 cells
[14] = target: PF-7802-labelled proteins in ARPE-19 cells (Homo sapiens, UniProt P62316); conditions: SNRPD2 Small nuclear ribonucleoprotein Sm D2 (P62316)
[15] = target: PF-7802-labelled proteins in ARPE-19 cells (Homo sapiens, UniProt Q14533); conditions: protein KRT81 Keratin, type II cuticular Hb1 (Q14533); one column per replicate
[16] = target: PF-7802-labelled proteins in ARPE-19 cells (Homo sapiens, UniProt P14406); conditions: protein COX7A2 Cytochrome c oxidase subunit 7A2, mitochondrial (P14406)
[17] = target: PF-7802-labelled proteins in ARPE-19 cells (Homo sapiens, UniProt P18085); conditions: protein ARF4 ADP-ribosylation factor 4 (P18085)
[18] = target: PF-7802-labelled proteins in ARPE-19 cells (Homo sapiens, UniProt P13637); conditions: protein ATP1A3 Sodium/potassium-transporting ATPase subunit alpha-3 (P13637)
[19] = target: PF-7802-labelled proteins in ARPE-19 cells (Homo sapiens, UniProt P51572)
[20] = target: PF-7802-labelled proteins in ARPE-19 cells (Homo sapiens, UniProt Q13310); conditions: protein PABPC4 Polyadenylate-binding protein 4 (Q13310); replicates in separate columns
[21] = target: PF-7802-labelled proteins in ARPE-19 cells (Homo sapiens, UniProt P13987); conditions: protein CD59 CD59 glycoprotein (P13987)
[22] = target: PF-7802-labelled proteins in ARPE-19 cells (Homo sapiens, UniProt Q16647); conditions: protein PTGIS Prostacyclin synthase, Q16647
[23] = target: PF-7802-labelled proteins in ARPE-19 cells (Homo sapiens, UniProt Q14847); conditions: protein LASP1 LIM and SH3 domain protein 1 (Q14847); replicates in separate columns
Sequence of UniProt Q14847 (Q14847 whole entry, the tested form may be a part): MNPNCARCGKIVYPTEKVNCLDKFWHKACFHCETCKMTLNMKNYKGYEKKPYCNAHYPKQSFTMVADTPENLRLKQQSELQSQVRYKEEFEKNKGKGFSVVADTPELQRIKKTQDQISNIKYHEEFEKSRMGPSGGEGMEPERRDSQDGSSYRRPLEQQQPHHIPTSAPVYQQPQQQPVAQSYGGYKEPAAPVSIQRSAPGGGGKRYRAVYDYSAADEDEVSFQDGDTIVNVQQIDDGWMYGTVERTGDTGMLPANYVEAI

Sequence of UniProt P61604 (P61604 whole entry): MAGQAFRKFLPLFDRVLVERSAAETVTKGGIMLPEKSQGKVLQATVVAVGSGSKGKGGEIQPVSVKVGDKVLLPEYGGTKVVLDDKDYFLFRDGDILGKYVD
Sequence of UniProt P18085 (P18085 whole entry): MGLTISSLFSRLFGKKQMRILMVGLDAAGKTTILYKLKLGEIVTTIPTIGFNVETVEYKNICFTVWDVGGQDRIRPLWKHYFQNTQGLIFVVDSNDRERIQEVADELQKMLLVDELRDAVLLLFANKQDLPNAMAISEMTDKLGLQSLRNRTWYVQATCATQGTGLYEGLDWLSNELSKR
Sequence of UniProt Q16647 (Q16647 whole entry, the tested form may be a part): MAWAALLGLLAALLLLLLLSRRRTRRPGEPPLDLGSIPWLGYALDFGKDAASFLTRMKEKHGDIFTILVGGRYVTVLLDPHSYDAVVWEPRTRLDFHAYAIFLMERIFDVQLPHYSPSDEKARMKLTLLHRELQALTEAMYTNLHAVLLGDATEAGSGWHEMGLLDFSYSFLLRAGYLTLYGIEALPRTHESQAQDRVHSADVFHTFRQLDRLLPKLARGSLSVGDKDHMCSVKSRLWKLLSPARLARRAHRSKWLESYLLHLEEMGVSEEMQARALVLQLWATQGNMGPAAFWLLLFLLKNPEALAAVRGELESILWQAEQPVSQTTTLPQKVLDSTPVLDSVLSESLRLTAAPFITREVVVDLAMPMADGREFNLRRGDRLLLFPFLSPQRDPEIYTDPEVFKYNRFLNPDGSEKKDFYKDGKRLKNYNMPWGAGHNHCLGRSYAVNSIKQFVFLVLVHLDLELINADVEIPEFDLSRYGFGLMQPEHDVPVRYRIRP
Sequence of UniProt Q13263 (Q13263 whole entry): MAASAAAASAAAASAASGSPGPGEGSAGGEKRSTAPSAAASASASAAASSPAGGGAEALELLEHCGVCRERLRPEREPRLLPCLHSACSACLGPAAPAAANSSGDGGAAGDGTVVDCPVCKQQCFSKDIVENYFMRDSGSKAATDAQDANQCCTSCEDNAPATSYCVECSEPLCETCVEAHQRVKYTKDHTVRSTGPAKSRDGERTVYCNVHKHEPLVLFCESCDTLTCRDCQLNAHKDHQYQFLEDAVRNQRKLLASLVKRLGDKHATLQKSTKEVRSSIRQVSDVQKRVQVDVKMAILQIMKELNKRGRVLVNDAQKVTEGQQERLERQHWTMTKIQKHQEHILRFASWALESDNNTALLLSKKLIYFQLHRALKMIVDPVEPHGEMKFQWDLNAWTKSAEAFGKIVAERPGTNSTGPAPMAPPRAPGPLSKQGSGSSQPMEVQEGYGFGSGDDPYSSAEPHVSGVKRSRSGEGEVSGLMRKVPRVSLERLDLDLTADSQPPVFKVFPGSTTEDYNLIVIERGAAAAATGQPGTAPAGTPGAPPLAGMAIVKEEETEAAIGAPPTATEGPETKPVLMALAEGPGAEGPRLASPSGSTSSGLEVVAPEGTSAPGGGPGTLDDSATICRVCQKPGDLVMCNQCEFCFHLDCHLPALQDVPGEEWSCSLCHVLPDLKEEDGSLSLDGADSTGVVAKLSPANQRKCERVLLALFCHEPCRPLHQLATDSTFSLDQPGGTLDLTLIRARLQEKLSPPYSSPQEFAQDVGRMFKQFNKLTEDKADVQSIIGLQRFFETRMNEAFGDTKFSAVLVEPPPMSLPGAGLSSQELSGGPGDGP
Sequence of UniProt Q13310 (Q13310 whole entry): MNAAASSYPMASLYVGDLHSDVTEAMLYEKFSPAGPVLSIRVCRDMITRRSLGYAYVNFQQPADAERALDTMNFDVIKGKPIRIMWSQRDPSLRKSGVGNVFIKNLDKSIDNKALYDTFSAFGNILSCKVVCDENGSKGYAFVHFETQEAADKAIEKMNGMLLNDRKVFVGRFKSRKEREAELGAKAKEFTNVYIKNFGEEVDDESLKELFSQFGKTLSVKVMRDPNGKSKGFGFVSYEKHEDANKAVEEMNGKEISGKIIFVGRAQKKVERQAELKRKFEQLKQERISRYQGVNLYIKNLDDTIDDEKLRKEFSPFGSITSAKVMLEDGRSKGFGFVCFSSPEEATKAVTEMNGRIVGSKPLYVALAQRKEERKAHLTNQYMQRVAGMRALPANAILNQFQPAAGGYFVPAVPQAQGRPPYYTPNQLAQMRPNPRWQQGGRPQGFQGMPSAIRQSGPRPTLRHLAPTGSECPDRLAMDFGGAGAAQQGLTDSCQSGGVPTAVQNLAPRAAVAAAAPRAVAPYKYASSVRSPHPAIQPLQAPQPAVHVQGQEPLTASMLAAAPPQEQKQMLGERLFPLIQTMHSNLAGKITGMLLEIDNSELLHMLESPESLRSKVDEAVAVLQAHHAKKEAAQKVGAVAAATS
Sequence of UniProt P51572 (P51572 whole entry): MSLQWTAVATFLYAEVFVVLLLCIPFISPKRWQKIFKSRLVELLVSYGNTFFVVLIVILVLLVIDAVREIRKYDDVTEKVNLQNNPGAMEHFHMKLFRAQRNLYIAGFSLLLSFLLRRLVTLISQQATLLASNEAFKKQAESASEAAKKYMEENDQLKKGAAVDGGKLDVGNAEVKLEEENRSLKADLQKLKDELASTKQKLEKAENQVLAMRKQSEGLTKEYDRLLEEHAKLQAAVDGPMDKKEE
Sequence of UniProt P67936 (P67936 whole entry): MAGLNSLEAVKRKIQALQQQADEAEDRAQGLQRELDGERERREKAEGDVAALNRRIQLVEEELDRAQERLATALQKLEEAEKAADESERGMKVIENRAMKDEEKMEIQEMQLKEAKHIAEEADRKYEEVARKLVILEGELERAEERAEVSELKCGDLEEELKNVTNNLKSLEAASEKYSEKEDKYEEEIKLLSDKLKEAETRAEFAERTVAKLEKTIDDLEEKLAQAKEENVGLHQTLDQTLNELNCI
Sequence of UniProt P51991 (P51991 whole entry): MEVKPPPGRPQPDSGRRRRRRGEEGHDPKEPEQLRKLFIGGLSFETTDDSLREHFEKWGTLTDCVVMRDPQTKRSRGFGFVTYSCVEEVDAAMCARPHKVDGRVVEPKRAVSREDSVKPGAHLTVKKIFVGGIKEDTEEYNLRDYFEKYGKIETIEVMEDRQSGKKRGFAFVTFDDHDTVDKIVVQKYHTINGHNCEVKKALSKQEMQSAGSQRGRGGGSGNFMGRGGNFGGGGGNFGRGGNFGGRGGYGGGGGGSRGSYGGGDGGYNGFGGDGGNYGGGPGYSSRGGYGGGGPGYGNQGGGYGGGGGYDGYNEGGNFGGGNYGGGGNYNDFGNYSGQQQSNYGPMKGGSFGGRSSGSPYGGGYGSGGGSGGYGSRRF
Sequence of UniProt Q14533 (Q14533 whole entry): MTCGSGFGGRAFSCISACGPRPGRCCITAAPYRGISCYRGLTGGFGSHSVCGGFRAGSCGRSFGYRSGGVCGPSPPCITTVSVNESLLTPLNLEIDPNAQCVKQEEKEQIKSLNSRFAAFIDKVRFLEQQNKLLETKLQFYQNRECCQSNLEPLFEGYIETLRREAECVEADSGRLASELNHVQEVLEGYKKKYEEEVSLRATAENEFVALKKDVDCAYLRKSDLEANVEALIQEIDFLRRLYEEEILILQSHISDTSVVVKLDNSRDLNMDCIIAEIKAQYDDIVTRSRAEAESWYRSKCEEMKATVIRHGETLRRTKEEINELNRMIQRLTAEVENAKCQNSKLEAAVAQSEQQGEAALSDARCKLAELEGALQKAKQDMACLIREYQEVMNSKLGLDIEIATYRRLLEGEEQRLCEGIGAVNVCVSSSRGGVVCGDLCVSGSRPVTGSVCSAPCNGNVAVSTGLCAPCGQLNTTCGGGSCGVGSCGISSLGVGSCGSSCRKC
Sequence of UniProt P62316 (P62316 whole entry): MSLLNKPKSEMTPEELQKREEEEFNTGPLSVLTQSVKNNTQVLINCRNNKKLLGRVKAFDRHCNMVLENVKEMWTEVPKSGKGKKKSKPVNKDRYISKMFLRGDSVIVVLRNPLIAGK

Question: What does the source list for `CNC1CCN(C(=O)C[C@@H](Cc2ccccc2)C(=O)N[C@@H](CSC)C(=O)N[C@@H](CC2CCCCC2)[C@@H](O)C(=O)OC(C)C)CC1` [CP-108671, reference compound]?
Answer: SILAC ratio (DMSO/CP-108671) [1]: 0.85; Median SILAC Ratio (Heavy/Light) [2]: 2.257; SILAC ratio (DMSO/CP-108671) [3]: 0.65; SILAC ratio (DMSO/CP-108671) ([4]; P60709 ACTB Actin, cytoplasmic 1): 0.85; Median SILAC Ratio (Heavy/Light) ([4]; protein ACTB Actin, cytoplasmic 1 (P60709)): 1.211 and 0.8007; Median SILAC Ratio (Heavy/Light) [5]: 0.09404; SILAC ratio (DMSO/CP-108671) ([6]; P07339 CTSD Cathepsin D): 3.62; SILAC result for CatD ([6]; pretreatment 2 µM inhibitor, PF-7802 100 nM, ARPE-19 cells): high SILAC ratios for CatD; Median SILAC Ratio (Heavy/Light) ([6]; protein CTSD Cathepsin D (P07339)): 0.2845 and 0.2761; SILAC ratio (DMSO/CP-108671) ([7]; P00338 LDHA L-lactate dehydrogenase A chain): 0.51; Median SILAC Ratio (Heavy/Light) ([7]; protein LDHA L-lactate dehydrogenase A chain (P00338), replicates in separate columns): 1.993 and 0.8337; Median SILAC Ratio (Heavy/Light) [8]: 1.138; Median SILAC Ratio (Heavy/Light) [9]: 1.679

Question: For `Cc1cc([C@H]2C[C@H]3[C@@H](C)SC(N)=N[C@@]3(c3ccc(F)cc3F)CO2)on1` [PF-9283], which “Median SILAC Ratio (Heavy/Light)” value [10] is on record?
Answer: 1.386 and 0.7458

Question: And the “Median SILAC Ratio (Heavy/Light)” value [11]?
Answer: 1.263

Question: What about the “Median SILAC Ratio (Heavy/Light)” value [12] of the same compound?
Answer: 1.337 and 2.743 and 1.246

Question: What about the “Median SILAC Ratio (Heavy/Light)” value [13] of the same compound?
Answer: 4.83

Question: What about the “Median SILAC Ratio (Heavy/Light)” value ([13]; UBBP4 Protein UBBP4 (J3QRK5)) of the same compound?
Answer: 2.167

Question: What about the “Median SILAC Ratio (Heavy/Light)” value ([13]; Uncharacterized protein (D6R9H1)) of the same compound?
Answer: 1.443

Question: And the “Median SILAC Ratio (Heavy/Light)” value ([13]; Uncharacterized protein (E7EMT2))?
Answer: 3.222

Question: And the “Median SILAC Ratio (Heavy/Light)” value ([13]; Uncharacterized protein (E9PLN8))?
Answer: 0.967

Question: And the “Median SILAC Ratio (Heavy/Light)” value ([13]; Uncharacterized protein (F8VZW7))?
Answer: 1.734

Question: What about the “Median SILAC Ratio (Heavy/Light)” value ([13]; Uncharacterized protein (H0YGG7)) of the same compound?
Answer: 0.6905

Question: And the “Median SILAC Ratio (Heavy/Light)” value ([13]; Uncharacterized protein (H3BQZ7))?
Answer: 1.385

Question: And the “Median SILAC Ratio (Heavy/Light)” value ([13]; Uncharacterized protein (I3L1M0))?
Answer: 217.312

Question: What about the “Median SILAC Ratio (Heavy/Light)” value ([13]; protein HLA-A HLA class I histocompatibility antigen, A-2 alpha chain (P01892), one column per replicate) of the same compound?
Answer: 0.8177

Question: And the “Median SILAC Ratio (Heavy/Light)” value ([13]; protein HLA-B HLA class I histocompatibility antigen, B-8 alpha chain (P30460), one column per replicate)?
Answer: 1.51

Question: What about the “Median SILAC Ratio (Heavy/Light)” value ([13]; protein HLA-B HLA class I histocompatibility antigen, B-14 alpha chain (P30462), one column per replicate) of the same compound?
Answer: 1.51

Question: What about the “Median SILAC Ratio (Heavy/Light)” value ([13]; protein HLA-B HLA class I histocompatibility antigen, B-35 alpha chain (P30685), one column per replicate) of the same compound?
Answer: 1.465

Question: And the “Median SILAC Ratio (Heavy/Light)” value ([13]; protein HLA-B HLA class I histocompatibility antigen, B-37 alpha chain (P18463), one column per replicate)?
Answer: 1.51

Question: And the “Median SILAC Ratio (Heavy/Light)” value ([13]; protein HLA-B HLA class I histocompatibility antigen, B-38 alpha chain (Q95365), one column per replicate)?
Answer: 1.51

Question: What about the “Median SILAC Ratio (Heavy/Light)” value ([13]; protein HLA-B HLA class I histocompatibility antigen, B-46 alpha chain (P30484), one column per replicate) of the same compound?
Answer: 1.465

Question: And the “Median SILAC Ratio (Heavy/Light)” value ([13]; protein HLA-B HLA class I histocompatibility antigen, B-51 alpha chain (P18464), one column per replicate)?
Answer: 1.465

Question: What about the “Median SILAC Ratio (Heavy/Light)” value ([13]; protein HLA-B HLA class I histocompatibility antigen, B-54 alpha chain (P30492), one column per replicate) of the same compound?
Answer: 1.465

Question: What about the “Median SILAC Ratio (Heavy/Light)” value ([13]; protein HLA-B HLA class I histocompatibility antigen, B-57 alpha chain (P18465), one column per replicate) of the same compound?
Answer: 1.465

Question: And the “Median SILAC Ratio (Heavy/Light)” value ([13]; protein HLA-B HLA class I histocompatibility antigen, B-58 alpha chain (P10319), one column per replicate)?
Answer: 1.465

Question: And the “Median SILAC Ratio (Heavy/Light)” value ([13]; protein HLA-B HLA class I histocompatibility antigen, B-59 alpha chain (Q29940), one column per replicate)?
Answer: 1.465

Question: And the “Median SILAC Ratio (Heavy/Light)” value ([13]; protein HLA-B HLA class I histocompatibility antigen, B-67 alpha chain (Q29836), one column per replicate)?
Answer: 1.51

Question: And the “Median SILAC Ratio (Heavy/Light)” value ([13]; protein HLA-B HLA class I histocompatibility antigen, B-82 alpha chain (Q29718), one column per replicate)?
Answer: 1.51

Question: What about the “Median SILAC Ratio (Heavy/Light)” value ([13]; protein HLA-C HLA class I histocompatibility antigen, Cw-14 alpha chain (F8VZB9), one column per replicate) of the same compound?
Answer: 0.1709

Question: What about the “Median SILAC Ratio (Heavy/Light)” value ([13]; protein HLA-C HLA class I histocompatibility antigen, Cw-17 alpha chain (Q95604), one column per replicate) of the same compound?
Answer: 0.8177

Question: And the “Median SILAC Ratio (Heavy/Light)” value ([13]; protein LOC440131 Similar to bA90M5.1 (Novel protein) (Q5TAE0), replicates in separate columns)?
Answer: 1.214

Question: And the “Median SILAC Ratio (Heavy/Light)” value ([13]; protein RBM14/RBM4 fusion Transcriptional coactivator CoAZ, B0LM41)?
Answer: 1.076

Question: What about the “Median SILAC Ratio (Heavy/Light)” value [14] of the same compound?
Answer: 1.057

Question: What about the “Median SILAC Ratio (Heavy/Light)” value [15] of the same compound?
Answer: 106.012

Question: And the “Median SILAC Ratio (Heavy/Light)” value [16]?
Answer: 0.8985

Question: What about the “Median SILAC Ratio (Heavy/Light)” value [17] of the same compound?
Answer: 1.4327 and 1.604

Question: What about the “Median SILAC Ratio (Heavy/Light)” value [18] of the same compound?
Answer: 1.878

Question: What about the “Median SILAC Ratio (Heavy/Light)” value [19] of the same compound?
Answer: 0.7381

Question: What about the “Median SILAC Ratio (Heavy/Light)” value [20] of the same compound?
Answer: 0.6783

Question: What about the “Median SILAC Ratio (Heavy/Light)” value [21] of the same compound?
Answer: 0.853

Question: What about the “Median SILAC Ratio (Heavy/Light)” value [22] of the same compound?
Answer: 1.856

Question: What about the “Median SILAC Ratio (Heavy/Light)” value [23] of the same compound?
Answer: 0.2974

Where “and” joins values, the source holds several entries; their conditions need not be identical. Equal values may be shown once. Read-outs that look alike come from different tables or passages of the source.
